Laboratory results published in PubChem BioAssay AID1159614 (National Center for Advancing Translational Sciences (NCATS), 2016).
The whole screen tested about 45,000 compounds, of which about 65 (0.1%) were called active. Calls come from the whole dose curve; as a rule, active = well fitted activation curve with a large enough effect; inconclusive = small, poorly fitted or top-dose-only effect; inactive = no such curve, though single readings can be large or run the other way. The list shows a part of the results.

Molecular target: Galactocerebrosidase (Homo sapiens) (UniProt P54803)
Chain of UniProt P54803 (P54803 whole entry, looked up): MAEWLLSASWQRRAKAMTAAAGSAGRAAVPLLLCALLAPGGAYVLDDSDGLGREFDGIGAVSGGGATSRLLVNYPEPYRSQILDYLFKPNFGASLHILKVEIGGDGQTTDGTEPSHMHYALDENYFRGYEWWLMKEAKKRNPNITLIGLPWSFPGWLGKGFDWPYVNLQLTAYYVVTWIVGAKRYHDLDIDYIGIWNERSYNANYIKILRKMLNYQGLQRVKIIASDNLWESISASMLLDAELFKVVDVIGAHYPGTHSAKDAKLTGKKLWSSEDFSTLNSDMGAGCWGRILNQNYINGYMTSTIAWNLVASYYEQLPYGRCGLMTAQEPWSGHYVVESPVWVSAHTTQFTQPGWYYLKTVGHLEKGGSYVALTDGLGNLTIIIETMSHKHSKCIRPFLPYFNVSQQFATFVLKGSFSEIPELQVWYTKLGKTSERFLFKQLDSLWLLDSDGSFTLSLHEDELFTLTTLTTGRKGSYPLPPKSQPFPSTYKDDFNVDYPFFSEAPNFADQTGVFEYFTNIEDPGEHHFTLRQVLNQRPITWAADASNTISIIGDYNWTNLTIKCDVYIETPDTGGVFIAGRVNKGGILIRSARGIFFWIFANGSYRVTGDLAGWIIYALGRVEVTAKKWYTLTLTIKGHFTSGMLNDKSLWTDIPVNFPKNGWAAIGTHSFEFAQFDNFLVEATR
Test: A Novel Cell-Based Assay to Identify Small Molecules for B -Galactocerebrosidase; note: 0% is about no effect; nearly all actives have a fitted effect of over 65% in size
Conditions: 145M-Twi-hGALC-G270D cells (Twitcher mouse brain line with human GALC G270D), HMU-beta-Gal fluorescence, 48 h; series mostly up to 57.5 µM; activation: at the top concentration
How it was run: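 Live 145M-Twi cells (Twitcher mouse brain-derived, GALC-null) stably expressing human GALC-G270D, with a wild-type GALC line, were compound-treated. Residual GALC activity was then read as fluorescence from 0.1 mM final HMU-β-gal at pH 5.2; higher signal means activation.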

activation, inactive:
Cc1ccc(S(=O)(=O)NCC2CCC(C(=O)NCCc3ccc(Cl)cc3)CC2)cc1 (configuration not stated) -11.8%
CCOc1ccc(N(CC)S(=O)(=O)N2CCCC(C(=O)NCCc3ccc(OC)cc3)C2)cc1 (configuration not stated) -11.8%
CCN(CC)S(=O)(=O)c1ccc2oc(C(=O)NCc3ccccc3OC)c(C)c2c1 -13.4%
CC(=O)CCCCn1c(=O)c2c(ncn2C)n(C)c1=O -9.5%
Cc1cc(C)c2c(n1)sc1c(=O)n(-c3cc(Cl)ccc3C)nnc12 -16.6%
O=C(/C=C\c1ccccc1)NC1CC(=O)N(c2ccccc2)C1 (configuration not stated) -11.6%
CCCn1c(CCCNC(=O)c2ccccc2OC)nc2ccccc21 -8.54%
CCOC(=O)C1CCCN(C(=O)c2nn(-c3ccc(C)cc3)c(=O)c3c2c2ccccc2n3C)C1 (configuration not stated) -13.1%
COc1ccccc1CNC(=O)c1cc2c(s1)-c1ccccc1OC2 -6.28%
CCC(=O)N1c2ccc(S(=O)(=O)CCC(=O)Nc3ccc(Br)c(C)c3)cc2CC1C (configuration not stated) -12.2%
CCCCN(C)CCCNC(=O)Cn1ncc2c3ccccc3n(Cc3cc(C)ccc3C)c2c1=O -26.1%
CCN(Cc1ccccc1)C(=O)c1sc2nc3n(c(=O)c2c1C)CCCC3 -16.4%
CCOc1ccc(CNS(=O)(=O)c2ccc(-c3coc(C)n3)cc2)cc1OC -46.7%
CCN(CC)CCCNC(=O)c1nn(-c2ccc(C)cc2)c(=O)c2c1c1ccccc1n2C -13.8%
O=C(NCc1cccs1)c1ccc(Cn2c(SCc3ccc(F)cc3)nc3cccnc32)cc1 -2.88%
COc1cccc(NC(=O)c2cnc(SCC(=O)N3CCOCC3)n(C)c2=O)c1 -21.8%
Cc1ccc(Cl)cc1N1CCN(C(=O)CN2C(=O)CSc3c2c(C)nn3-c2ccccc2)CC1 -15.6%
CCc1ccc2c(c1)-c1ccccc1S(=O)(=O)N2CC(=O)N1CCCCC1 -13.9%
COc1ccc(-c2cn3c(n2)sc2cc(C(=O)NCCc4ccc(OC)cc4OC)ccc23)cc1 -9.75%
CCOCCCN(Cc1ccco1)C(=O)c1cc2c(=O)[nH]c3ccc(C)cc3c2s1 -23.9%
COc1ccc(/C=C(\C#N)c2nc3ccccc3n2C)c(OC)c1 -16.4%
O=S(=O)(c1ccccc1)c1nnn2c1nc(NCc1ccccc1)c1sccc12 -12%
COCCNC(=O)Cn1c(=O)n(CCCCCC(=O)Nc2ccccc2)c(=O)c2sccc21 -16.2%
COc1ccc(CNC(=O)CCCn2c(=O)c3cccn3c3cccnc32)cc1 -4.61%
CCN(CC)CCCNC(=O)CN1N=C(c2ccc(OC)cc2)CCC1=O -4.48%
CN(C/C=C/c1ccccc1)Cc1cccc2ccccc12 7.9%
COc1ccc(C(=O)N2c3ccc(C)cc3C(C)(c3ccccc3)CC2(C)C)cc1 (configuration not stated) -42.9%
COc1cc(Cl)c(C)cc1NC(=O)Cn1ncc2c3ccccc3n(Cc3ccccc3)c2c1=O -9.68%
CCc1ccc(CNC(=O)c2c(C)oc3ncn(CC(C)C)c(=O)c23)cc1 -5.53%
CCCCNS(=O)(=O)c1ccc2nc(-c3cccnc3)cc(C(=O)NCCOC)c2c1 -9.98%
Cc1ccccc1NC(=O)c1ccc(Cl)c(S(=O)(=O)N2CCCCCC2)c1 -40.3%
CCc1ccc(S(=O)(=O)c2c(C(=O)c3ccccc3)cnc3ccc(CC)cc23)cc1 -9.26%
CCOCCCNC(=O)c1c(NC(=O)Cc2coc3ccc(C)cc23)sc2c1CCC2 -16.4%
O=S(=O)(c1cccc(F)c1)N1CCC(Oc2ccc(-n3cnnn3)cc2)CC1 -6.06%
CC(C)c1ccc(OCC(O)CN2CCN(c3ccc(F)cc3)CC2)cc1 (configuration not stated) -9.25%
COc1ccccc1CN1CCC(CNC(=O)c2cnn(-c3ccc(Cl)cc3)c2C2CCN(C(=O)OC(C)(C)C)CC2)CC1 -18.5%
O=C1c2[nH]nc(-c3ccccc3O)c2C(c2ccc(F)cc2)N1CCO (configuration not stated) -7.3%
COc1ccc(OC)c(NC(=O)Cc2c(C(=O)O)n(C)c3ccc(C)cc23)c1 -13%
CCC1CCCCN1C(=O)Cn1c(=O)cc(C(F)(F)F)c2c(C)nn(C)c21 (configuration not stated) 2.68%
COc1ccc(NC(=O)CSc2nccn2Cc2ccco2)c(OC)c1 -11.9%
Cc1ccc(CN(Cc2ccco2)C(=O)c2ccc(Cl)cc2)o1 4.36%
CCc1ccc(-n2c(=O)c3c(C)c(C(=O)N(C)C)sc3n(Cc3ccccc3C#N)c2=O)cc1 -8.19%
CCc1ccccc1NC(=O)CSc1ncc(S(=O)(=O)c2ccc(C(C)C)cc2)c(N)n1 -3.72%
CCc1cccc(C)c1Nc1c(-c2cccc(O)c2)nc2nc(C)cc(C)n12 -13.7%
CC1=C(C(=O)Nc2ccc(Cl)cc2)C(c2ccc(C(F)(F)F)cc2)n2nnnc2N1 (configuration not stated) -16%
CCOC(=O)c1c(C)sc(-c2c(-c3ccc(OC)c(F)c3)[nH]c3[nH]c(=O)[nH]c(=O)c23)c1O -9.97%
CCOC(=O)c1cc(-c2ccc(OC)cc2)n(CCC(=O)Nc2nc3ccc(OCC)cc3s2)c1C -13.9%
COc1ccc(-c2nc(SCC(=O)N3CCCCC3C)n[nH]2)cc1 (configuration not stated) -6.73%
COC(=O)c1cnn(-c2ccc(C(=O)Nc3cc(OC)c(OC)c(OC)c3)cc2)c1N -11.2%
CCOc1ccccc1CNc1ncnc2onc(-c3ccc(F)cc3)c12 -4.73%
CCN1CCC(N(Cc2ccc(F)cc2)C(=O)Nc2cc(C)ccc2C)CC1 0.96%
CCCNC(=O)CN1C(=O)COc2ccc(S(=O)(=O)N3CCCC3)cc21 -8.15%
CCOc1c(CC2C(=O)Nc3ccc(Br)cc32)cccc1OC (configuration not stated) -7.89%
Cc1nc(N2CCOCC2)c2c(C(=O)N3CCN(c4cc(Cl)ccc4C)CC3)c(C)oc2n1 -16%
O=C(CN1C(=O)C2CCCCN2c2ccc(C(=O)N3CCCC3)cc21)NCc1ccc(F)cc1 (configuration not stated) -10.1%
COC(=O)c1ccc(C2CC(=O)Nc3c2c(C)nn3-c2nc(C)cc(C)n2)cc1 (configuration not stated) -13.7%
O=C(Nc1ccc(S(=O)(=O)Nc2ncccn2)cc1)c1cccc(Cl)c1 -11%
CCOc1ccc(N2C(=O)c3[nH]nc(-c4ccccc4)c3C2c2ccc(O)c(OC)c2)cc1 (configuration not stated) -14.9%
COc1ccc(-n2cc(C(=O)NCCc3ccc(C)cc3)c3ccccc3c2=O)cc1 5.3%
CC1CCCCN1C(=O)CSc1nc2ccccc2nc1Cc1ccccc1 (configuration not stated) -9.24%
COc1cc(NC(=O)Cn2c(=O)n(Cc3ccccc3)c(=O)c3oc4ccccc4c32)cc(OC)c1 -8.23%
CCOC(=O)c1c(S(=O)(=O)N2CCC(C(=O)Nc3ccc(C)cn3)CC2)c(C)n(C)c1C -14.5%
CCn1c(SC)nc2c([nH]c3ccccc32)c1=O -9.56%
Cc1cc(C)cc(NC(=O)CC(C)n2nc(C)cc2C)c1 (configuration not stated) -15.8%
CCN(CC)c1ccc(NC(=O)CN2CCN(S(=O)(=O)c3ccc(C(C)C)cc3)CC2)cc1 -15.9%
O=C(Cn1ccc2cc(S(=O)(=O)N3CCCC3)ccc21)NCc1ccc(Cl)cc1 7.16%
COc1ccc(CNC(=O)c2ccc3c(c2)N=C(C)c2c(C)ccc(C)c2S3)cc1 -8.14%
COc1ccc(-c2noc(CC(=O)N(C)c3ccccc3F)n2)cc1 -17%
O=C(Nc1ccc(F)cc1)C1CCN(c2nc3ccccc3nc2C(F)(F)F)CC1 -15.5%
COc1ccc(NC(=O)C2=C(C)Nc3nc(SCc4ccc(C)cc4C)nn3C2c2cccc(OC)c2OC)cc1 (configuration not stated) -6.61%
COc1ccccc1NC(=O)c1sc2nc(-c3cc4cc(Cl)ccc4oc3=O)[nH]c(=O)c2c1C -8.72%
Cc1ccc(CNC(=O)c2oc3ccc(S(=O)(=O)N4CCCC(C)C4)cc3c2C)cc1 (configuration not stated) -2.62%
Cc1oc2ncnc(N3CCCCC3)c2c1C(=O)NCC1CCN(Cc2ccccc2F)CC1 -15.3%
Cc1[nH]c(=O)[nH]c(=O)c1S(=O)(=O)Nc1cccc(Cl)c1C -9.36%
CCOc1ccc(CNC(=O)Cn2nc(C)c3nn(-c4ccc(Cl)cc4)c(C)c3c2=O)cc1 -15.3%
COc1cc(-c2ccno2)ccc1S(=O)(=O)N1CCN(c2cccc(Cl)c2)CC1 -4.24%
COc1ccc(CCNS(=O)(=O)c2ccc3c(c2)c(=O)n(C)c(=O)n3C)cc1OC -17.3%
O=C(NCCN1CCOCC1)c1ccc(Cl)cc1 -17.5%
COc1ccc(OC)c(NC(=O)Cn2nc3c(cc2=O)CCCC3)c1 9.57%
NS(=O)(=O)c1ccc(NC(=O)c2cc(-c3cccs3)nc3ccccc23)cc1 -12%
Cc1ccc(NC(=O)c2nc(S(C)(=O)=O)ncc2N(Cc2cccc(F)c2)Cc2ccco2)cc1C -14.7%
Cc1ccc(NC(=O)CCCc2nnc3n(C)c(=O)c4sccc4n23)cc1C -6.89%
Cc1cccc(NC(c2cccc(F)c2)c2ccc3ccc(C)nc3c2O)n1 (configuration not stated) -5.14%
Cc1ccc(CCNC(=O)c2cc3c(s2)-c2ccccc2OC3)cc1 -11.2%
c1ccc(-c2cc(-c3ccccc3)c3c(n2)-c2ccccc2OC3)cc1 -4.4%
CC1CCN(S(=O)(=O)c2ccc3c(c2)N(CC(=O)NCc2ccccc2Cl)C(=O)CS3)CC1 -3.35%
Cc1nc2ccc(S(=O)(=O)NC(C(=O)NCc3ccccc3Cl)C(C)C)cc2s1 (configuration not stated) -12.8%
NC(=O)CSc1nc2ccc(NC(=O)COc3ccccc3)cc2s1 -20.1%
CCCn1c(=N)c(C(=O)NC2CCCC2)cc2c(=O)n3cc(C)ccc3nc21 -3.84%
CC1CCC(NC(=O)c2ccc3c(c2)N(Cc2ccccc2F)C(=O)c2ccccc2S3)CC1 (configuration not stated) -16.2%
NCCNCCNCCN -14.6%
Cc1cc(C)cc(NC(=O)Cn2nnc(C(=O)NCCc3ccccc3)c2N)c1 -20.9%
COc1ccc(OC)c(CNS(=O)(=O)c2c(C(=O)N3CCC(C)CC3)c(C)n(C)c2C)c1 -1.11%
CCCCNc1ccc(-c2nc(-c3ccccc3)no2)cc1[N+](=O)[O-] -8.48%
Cc1ccc2c(CC(=O)N3CCN(c4cccc(Cl)c4)CC3)coc2c1 -21.2%
O=C(Nc1cccc(C(F)(F)F)c1)C1CCCN(S(=O)(=O)c2cccc3nsnc23)C1 (configuration not stated) -30%
O=S(=O)(Nc1ccc(F)c(C(F)(F)F)c1)c1ccc(N2CCCCS2(=O)=O)cc1 -16.8%
